This is one part of the list. At the low end of the ranking the order means little. The protein was read in a cell extract, so binding may be indirect.
Each sequence was assayed against T1, HNF4alpha8 (COS-7 nuclear extract) (UniProt P41235-5) (assay: protein-binding microarray). Settings: COS-7 nuclear extract on double-stranded Agilent 4x180k PBM; binding buffer, salt, pH and temperature not given; high values mean tight binding; double strand, one strand shown; sequences stand for … in …GCCTAGGGAGATTAGAGTATCGGTCGA.
T1 sequence: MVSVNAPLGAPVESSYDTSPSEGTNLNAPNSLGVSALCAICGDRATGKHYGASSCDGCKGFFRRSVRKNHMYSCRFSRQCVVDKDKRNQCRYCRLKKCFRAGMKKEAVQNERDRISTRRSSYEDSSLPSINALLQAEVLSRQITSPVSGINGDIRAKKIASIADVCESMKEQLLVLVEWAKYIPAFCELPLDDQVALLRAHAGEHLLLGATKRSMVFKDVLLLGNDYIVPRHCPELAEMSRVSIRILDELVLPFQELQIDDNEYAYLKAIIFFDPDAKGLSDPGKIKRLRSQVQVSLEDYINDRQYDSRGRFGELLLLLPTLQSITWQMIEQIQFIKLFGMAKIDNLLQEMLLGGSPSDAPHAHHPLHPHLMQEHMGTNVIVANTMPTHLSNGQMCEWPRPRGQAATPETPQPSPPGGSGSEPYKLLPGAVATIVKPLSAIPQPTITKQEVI
For ATGCATGCTGTGTGTGTGTGTGTGTGTGTG, the binding signal (log2 normalized intensity) was 3.21.
Sequence CCTGGCCTCTGAGGTGTTAACCTGATGCTG has a binding signal (log2 normalized intensity) of -0.31.
Work on AAGGTTGGTTTTTGGAGACAGGAGTAGTCA yielded a binding signal (log2 normalized intensity) of 0.982.
Sequence GGATATCCTGGCAGTGTGGAAAAGCTGGCT has a binding signal (log2 normalized intensity) of -1.43.
For ACCCCTTCTTGACCTGCGTAGCCCAAAGGT, the binding signal (log2 normalized intensity) was 1.72.
TCTCTTATCACCCTGAACAGTGGCTGGCCA was tested, and the binding signal (log2 normalized intensity) was 1.18.
Work on TGAATACACATAATGTGCTTATCAGCAAGG yielded a binding signal (log2 normalized intensity) of 0.46.
Work on ATGCTGGTGTGTGATAAAACCCATGGACCT yielded a binding signal (log2 normalized intensity) of 2.72.
Sequence GCGAATATGTCAGGCTCAGGGACCCAGCGG has a binding signal (log2 normalized intensity) of -1.32.
CTGACTCAGACTGAGGATGGGCCAAGGTTC showed a binding signal (log2 normalized intensity) of 2.55.
AATAATACTGACTGAGAAACCAAGATCCTA showed a binding signal (log2 normalized intensity) of -1.05.
With TTGCTGTGCACTTCTCTTTGAGTCCCAATC the binding signal (log2 normalized intensity) was 0.0503.
TGCTCTCTCCAGGGGAGGGTGACCAGATTA was tested, and the binding signal (log2 normalized intensity) was 0.096.
CCAGAAATCAACCTTTGATCGTTTGCATGC showed a binding signal (log2 normalized intensity) of 5.61.
GTCCAAAGGCAGTCTGGAAGTTGAATTCCT was tested, and the binding signal (log2 normalized intensity) was -1.29.
CATTTGGGACAAAGTTCATCTGGGCTTTAG showed a binding signal (log2 normalized intensity) of 3.75.
With GGGAGCAGTGGGGACGCCTTCCCCTGCCAC the binding signal (log2 normalized intensity) was -1.33.
With GCTGGCCTGTCTCCTGGCCTATTGTTCTTC the binding signal (log2 normalized intensity) was 1.17.
ATTATTAATTTACTGAAAAGTCTACCTTTG was tested, and the binding signal (log2 normalized intensity) was 0.963.
TGACCTTTGTCCTGGCACAACTGGATGGTG was tested, and the binding signal (log2 normalized intensity) was 5.2.
With GGATTCCCAGATGGAGTGCTCTGAACCGTG the binding signal (log2 normalized intensity) was 1.23.
TTTCTGGTTCTCCAGCTAGCAAACAGCATA gave a binding signal (log2 normalized intensity) of -1.21.
For GCGACTTTAGGGGCCAAGGGAAAACTTCCC, the binding signal (log2 normalized intensity) was -1.38.
ATTGTCAATACCCTGTTATTAGTCCAAGAG gave a binding signal (log2 normalized intensity) of 0.619.
For CGTCCGTCACCCCTTTCTTTGATTAGGAAA, the binding signal (log2 normalized intensity) was 1.07.
In the case of TCTTTCTATATTTGTAGGCAGCTAGGCAGG, the binding signal (log2 normalized intensity) is reported as 1.22.
TAAGTTTAAGTCCAGAAAAGACCAAAAAGG showed a binding signal (log2 normalized intensity) of -1.28.
CTAAGTGGCTCGACAACGATTTGGGAAATG gave a binding signal (log2 normalized intensity) of -1.23.
GAGCAGTCTTGAGCGCAAATGATCAAAGGT gave a binding signal (log2 normalized intensity) of 1.14.
With CCCCTTCTGTTTCCAGAAATCTGACCTCTG the binding signal (log2 normalized intensity) was 5.06.
With GTTGAATGATGGCGAGTGTGCAATTAGAGC the binding signal (log2 normalized intensity) was -0.888.
TTGTGTTTGTCTTAGGGGGTCTGGTTTCTA was tested, and the binding signal (log2 normalized intensity) was 1.16.
For GTTGCATGCAACCTTTGTCCTCATTGAGCC, the binding signal (log2 normalized intensity) was 5.82.
Sequence AGCTGGAGGGGGACTGGAAGGGAGAGATAA has a binding signal (log2 normalized intensity) of -1.38.
Sequence AAGAGGAATGCTTTGAGCCAGAATCTGTCA has a binding signal (log2 normalized intensity) of -0.971.
Work on CCAGCAAAGAGGGTCAAAGCCCAGGAGAGC yielded a binding signal (log2 normalized intensity) of -1.2.
Work on AGAAGACTTTGGGGGTAGGTGGAGTGAGGG yielded a binding signal (log2 normalized intensity) of -1.24.
With CAAAGGTCATTGGTATTGATAGCGCTTACT the binding signal (log2 normalized intensity) was 3.35.
With CGAAAAAGGAAATATCTTCCCATAAAACCT the binding signal (log2 normalized intensity) was -1.34.
TAAGGAAGGAAGGTGCTTATCAGAGCAAGA was tested, and the binding signal (log2 normalized intensity) was -1.25.
With CTGAGCCTCAGAACCATTTGTGAGGATGGG the binding signal (log2 normalized intensity) was -0.788.
Sequence CAGAGCCGCACCCAGCTTTCATCTCGGCTG has a binding signal (log2 normalized intensity) of -1.24.
For CTTTCATGAATAAATGACATAGTGACATTT, the binding signal (log2 normalized intensity) was 1.78.
For TTAAAAAAAAAAAAAACTATCAAACTAGTG, the binding signal (log2 normalized intensity) was -1.26.
Work on TGAACAGAATAGAGGCCTTTGTGCTGACTA yielded a binding signal (log2 normalized intensity) of -1.05.
For GGTAAACACTGAGCTTTCATCTAAGATCCT, the binding signal (log2 normalized intensity) was -1.32.
CCTCCTCCTGGGGGCTTTTGTTTAGGAAGA gave a binding signal (log2 normalized intensity) of 0.484.
GTCCAGTGGTGTCTTACCGGGATTTTGTTG was tested, and the binding signal (log2 normalized intensity) was 1.79.
Sequence GGTGTGCCTCCTCCATCTCCTCCACCAGCT has a binding signal (log2 normalized intensity) of -1.3.
Work on TTTTTGTGCCTCTTTGGTGAATTTTATGTC yielded a binding signal (log2 normalized intensity) of 1.36.
TCCAGGGATGTCTTTTTCTGACCCATGGGT was tested, and the binding signal (log2 normalized intensity) was 2.81.
In the case of CCTGCACACCTGCCTTTGATCAGGGACCTT, the binding signal (log2 normalized intensity) is reported as 1.97.
Work on TCAGGTCCACCAAGGTGGTGAAGATGTCCT yielded a binding signal (log2 normalized intensity) of 0.309.
With GTCTATCTTAGCCATGTTCTCTAGAAACAG the binding signal (log2 normalized intensity) was -1.24.
GGTTAAAGGTTATTTGCTCACCAGTGACCA showed a binding signal (log2 normalized intensity) of 2.39.
TTCCCTCCCTGGTATGTACTTTCTTTTGGC showed a binding signal (log2 normalized intensity) of 1.71.
For AGTGTCCCACTTCAGGCAGGAATGCTGAAC, the binding signal (log2 normalized intensity) was 0.321.
Sequence CGCCAGGTGGCCGAGCAGGACGCTACCCGC has a binding signal (log2 normalized intensity) of -1.29.
Sequence GAAAAAGTACACACCTGCAACCTATTTCTT has a binding signal (log2 normalized intensity) of -1.25.
With GCCTTGTGGGAGCTGTAGTACGCTCCCTGT the binding signal (log2 normalized intensity) was -1.
AGAGGTCAGAAGTCCAAAATCAGTCTCAGT was tested, and the binding signal (log2 normalized intensity) was 3.81.
TCTAAAGTGACTTAGCAGGATTCTTGCTAC gave a binding signal (log2 normalized intensity) of -1.39.
For TTCTTCCTATGGGATCAAAGTGCGACAGGG, the binding signal (log2 normalized intensity) was 3.89.
Work on CCCTCACTTACATCCTCAGGTAAAGATCAA yielded a binding signal (log2 normalized intensity) of 0.915.
With GACCTCTCTCTCCCCAGACAGCCACTGTTT the binding signal (log2 normalized intensity) was 2.32.
In the case of CAGAAGGAGGGCGGGGAGTCTCCTGGGTAA, the binding signal (log2 normalized intensity) is reported as -1.37.
With CAAAGAGAAATGGTGTGGACAGCAGACAAC the binding signal (log2 normalized intensity) was -1.25.
Work on GAAGGGAGGTGCCATGTCACCGCACAGGGG yielded a binding signal (log2 normalized intensity) of -1.5.
With TGTTATCAAGTGAGAAACCACAGGAGTGCC the binding signal (log2 normalized intensity) was -1.3.
CAGGCCTGTGTCCAAACTTCAGGATTCTTT showed a binding signal (log2 normalized intensity) of -1.11.
Work on GCTTACAACTCTAAGGGGGAAAGTCCACGT yielded a binding signal (log2 normalized intensity) of 4.61.
GTCTTATCTACCTGGCTTGTTTGCAAAGCA gave a binding signal (log2 normalized intensity) of 0.749.
AGAATCTACAAGGACCAGATTCTTAAAGGG showed a binding signal (log2 normalized intensity) of -1.27.

Source: article PMC10726135
